In PubChem BioAssay AID485294 (National Center for Advancing Translational Sciences (NCATS), 2010):
In all, about 370,000 compounds went through this assay and about 150 (0.041%) were called active. The inconclusive results got no clear call from the source; some entries with a clear call stand among them for comparison. The call rests on the fitted dose curve; in most records, active means well fitted inhibition curve with a large enough effect; inconclusive means small, poorly fitted or top-dose-only effect; inactive means flat fitted curve, though single readings scatter. No potency is given beside an inconclusive call; the fits are too rough.

Molecular target: Beta-lactamase (Escherichia coli (strain K12)) (UniProt P00811)
Sequence of UniProt P00811 (P00811 whole entry, looked up): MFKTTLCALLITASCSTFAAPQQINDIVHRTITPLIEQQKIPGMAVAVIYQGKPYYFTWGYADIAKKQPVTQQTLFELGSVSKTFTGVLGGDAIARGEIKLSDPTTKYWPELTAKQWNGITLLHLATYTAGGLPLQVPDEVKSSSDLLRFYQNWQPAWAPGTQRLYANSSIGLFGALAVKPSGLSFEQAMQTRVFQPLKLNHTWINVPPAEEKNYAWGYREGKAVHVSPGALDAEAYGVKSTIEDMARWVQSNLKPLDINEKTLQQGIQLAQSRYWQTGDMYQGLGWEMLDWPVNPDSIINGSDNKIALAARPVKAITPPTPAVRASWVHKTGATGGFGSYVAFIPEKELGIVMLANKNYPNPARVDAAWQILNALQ
Experiment: qHTS Inhibitors of AmpC Beta-Lactamase (assay with detergent); further: nearly all actives have a fitted effect of over 25% in size;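 on activity change, negative = inhibition: 0% = no-compound wells and -100% = no-enzyme wells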
Details: AmpC hydrolysis of nitrocefin, absorbance 480 nm, 0.01% Triton; activity change, negative = inhibition: at 114 µM (top of the series)
How it was run: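 AmpC (5.3 nM in the dispensed reagent) in 20 mM phosphate pH 7.0 with 0.01% (detergent screen) or 0.0001% Triton X-100 was preincubated with compounds for 15 min at room temperature. Nitrocefin was then added from an 800 uM solution, and hydrolysis was followed at 480 nm.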
Potency means the concentration at half of the fitted maximal effect; tags describe the fitted curve by direction and shape.

SMILES | Potency | activity change, negative = inhibition
CCOc1nc2c(c(=O)n(C)c(=O)n2C)n1Cc1ccccc1Cl | inconclusive [inhibitor, partial curve, poor fit] | –
CC(C)(Oc1ccc(Cl)cc1)C(=O)NCC(c1cccs1)N1CCOCC1 (stereo unspecified) | inconclusive [inhibitor, full curve, poor fit] | –
Cc1ccc(S(=O)(=O)Nc2c(Cl)c(Cl)c(O)c3ccccc23)cc1 | – | inactive: -0.601%
CCc1ccc(N(C(=O)c2ccoc2C)C(C(=O)NC2CCCC2)c2ccc(OC)cc2)cc1 (stereo unspecified) | inconclusive [inhibitor, partial curve] | –
CC(C)C[C@H]1CN=C(Nc2ccccc2)N1CC1CCCCCC1 | – | inactive: -14.9%
CCOC(=O)c1ccc(NC(=O)CSc2c(C(C)C)cnc3c2c(=O)n(C)c(=O)n3C)cc1 | – | inactive: -13.7%
O=C(O)c1ccc(CSc2ncn[nH]2)cc1 | – | inactive: 0.946%
CCCOc1ccc(Br)cc1/C=N/O | – | inactive: 3.66%
C/C(=N\NC(=O)C1CC1)c1ccc(N2CCOCC2)cc1 | inconclusive [inhibitor, full curve] | –
O=C1OC(c2cccc([N+](=O)[O-])c2)C2(CCCC2)C(=O)C12CCCCC2 (stereo unspecified) | inconclusive [inhibitor, partial curve] | –
COc1ccc(OC)c(NC(=O)NNC(=O)c2cc3occc3[nH]2)c1 | inconclusive [inhibitor, partial curve, poor fit] | –
CCOC(=O)c1ccc(NC(=O)C2(c3ccc(OC)cc3)CCCC2)cc1 | – | inactive: -1%
CCC(C)Sc1nc2c(c(=O)n1C)SC(C)C2 (stereo unspecified) | inconclusive [inhibitor, full curve, poor fit] | –
Cc1ccc(CNc2nc(C)c(C(=O)N(C)C)s2)cc1 | – | inactive: -11.6%
O=C(Nc1nc2ccccc2[nH]1)c1ccc(Cl)cc1 | inconclusive [inhibitor, full curve] | –
C/C(=N\NC(=O)c1ccc(Cl)cc1)c1cccs1 | – | inactive: -9.1%
COCCN(C(=O)CSc1nc2ccccc2o1)c1c(N)n(Cc2ccccc2)c(=O)[nH]c1=O | inconclusive [inhibitor, full curve] | –
COc1ccc2c(c1)CC(C(=O)NCc1ccc(F)cc1)CO2 (stereo unspecified) | – | inactive: 18.4%
Cc1cc(OCC(=O)Nc2ccc(C(=O)OC3CCCCC3)cc2)cc(C)c1Cl | – | inactive: -3.91%
COC(=O)CSc1nc2ccccc2o1 | – | inactive: -8.23%
CSc1c(CC(=O)Nc2ccccc2C(F)(F)F)n(Cc2ccccc2)c2ccccc12 | – | inactive: -1.63%
COC(=O)Cn1c2c(c3cc(C)ccc31)CCCC2 | inconclusive [inhibitor, partial curve] | –
CCN1CCN(C(=O)CCc2nnc(CCCCc3ccccc3)o2)[C@@H](C)C1=O | – | inactive: 5.39%

SMILES | Potency | activity change, negative = inhibition
Cc1cccc(NC(=S)NCCC(C)C)c1 | – | inactive: 22.1%
Cc1ccccc1/C=N/NC(=O)c1sccc1C | inconclusive [inhibitor, full curve] | –
CSCCC(NC(=O)C1CCC(C)CC1)C(=O)NCCN1CCC(C)CC1 (stereo unspecified) | inconclusive [inhibitor, single point] | –
COc1cccc(C2CC(c3cccs3)=NN2C(=O)CCC(=O)O)c1OC (stereo unspecified) | inconclusive [inhibitor, partial curve, poor fit] | –
CCOc1cc(C(=O)NC2=NCCS2)cc(OCC)c1OCC | inconclusive [inhibitor, full curve, poor fit] | –
COc1ccc(N(C(=O)c2cccc([N+](=O)[O-])c2)S(=O)(=O)c2cccs2)cc1 | inconclusive [inhibitor, full curve, poor fit] | –
COc1ccccc1N1CCN(CCN2C(=O)C3CCCN3C2=O)CC1 (stereo unspecified) | inconclusive [inhibitor, full curve, poor fit] | –
O=C(Nc1ccccc1)c1ccc(-c2ccc(Br)cc2)o1 | inconclusive [inhibitor, partial curve, poor fit] | –
CN(C)/C=N/NC(=O)c1ccccc1 | inconclusive [inhibitor, single point] | –
CC(C(=O)NC1CCCC1)N(Cc1ccco1)C(=O)c1snc(C(=O)NC2CCCC2)c1N (stereo unspecified) | – | inactive: -9.06%
N#CCCN1CCN(S(=O)(=O)c2ccc(S(=O)(=O)NCC3CCCO3)cc2)CC1 (stereo unspecified) | inconclusive [inhibitor, partial curve, poor fit] | –
CCNC(=S)NNc1nnc(-c2ccccc2)c(-c2ccccc2)n1 | inconclusive [inhibitor, full curve, poor fit] | –
COc1ccc(-n2cccc2/C=C2/NC(=O)N(c3cccc(Cl)c3)C2=O)cc1 | inconclusive [inhibitor, full curve, poor fit] | –
Oc1ccc(/C=C/c2ccc3cccc(O)c3n2)cc1Br | inconclusive [inhibitor, partial curve, poor fit] | –
Cc1ccnc(NC(=O)CN2C(=O)c3ccccc3S2(=O)=O)c1 | inconclusive [inhibitor, partial curve, poor fit] | –
NNc1nc(-c2ccccc2)cc(-c2ccccc2)n1 | – | inactive: -4.37%
Cc1nc2sc(C(c3ccco3)N3CC(C)OC(C)C3)c(O)n2n1 (stereo unspecified) | inconclusive [inhibitor, partial curve, poor fit] | –
CC(C(=O)Nc1nc(-c2ccc(F)cc2)cs1)N1C(=O)C2CC=CCC2C1=O (stereo unspecified) | – | inactive: 0.12%
CCn1ccc(C(=O)Nc2ncc(C)s2)n1 | – | inactive: 1.55%
COc1ccc(NC(=O)Cn2c3ncccc3c(=O)n2-c2ccc(C)c(C)c2)c(OC)c1 | – | inactive: -1.73%
CCN(CC)CCN1C(=O)C(=O)/C(=C(/O)c2cnn(-c3ccccc3)c2C)C1c1ccc(C)o1 (stereo unspecified) | inconclusive [inhibitor, partial curve, poor fit] | –
COc1cc(C(=O)NC(=S)Nc2ccc(N3CCCC3)cc2)cc(OC)c1OC | inconclusive [inhibitor, full curve, poor fit] | –
O=C(c1ccc2nc(N3CCCCC3)sc2c1)N1CCN(c2ccccn2)CC1 | inconclusive [inhibitor, full curve] | –
